Measured values: patent US4187220A, “New O-(3-amino-2-hydroxy-propyl)-amidoxime derivatives, process for the preparation thereof and pharmaceutical compositions containing same” (Chinoin Gyogyszer es Vegyeszeti Termekek Gyara R.T., priority 1977, dated 1980)
Where a name gives a salt, the structure may show the parent alone.

Tests used:
rat normal aorta-spiral = assay: noradrenaline dose-effect curve on normal (control) rat aorta-spiral
in vivo = conditions: mouse, iv, mice
[1] = system: rat diabetic aorta-spiral; assay: noradrenaline dose-effect curve on aorta-spiral of diabetic (Streptosotocine treated) rats, selective β-blocking activity
mice = conditions: mouse, in vivo
guinea pig trachea = assay: β-blocking activity on trachea preparation (antagonism of isoprenaline)
cat papillary muscle = assay: β-blocking activity on cat papillary muscle
Description: The compounds of the formula I have been evaluated as general β-blockers by assay using trachearing preparations [J. Pharmacol. Exp. Therap., 90, 104 (1974)] and papillary muscles of cats.

[2] = system: uterus of the untreated rat; assay: uterus preparation of the untreated rat
rat gastric fundus = assay: isolated strips of rat gastric fundus not pretreated (isoprenaline dose-effect curve); conditions: summary of the gastric fundus tests
hypoxia survival time = conditions: in vivo
[3] = system: rat uterus pretreated with Streptosotocine; assay: rat uterus pretreated with Streptosotocine; conditions: 100 γ/ml.
[4] = system: rat gastric fundus treated with Streptosotocine; assay: isolated strips of gastric fundus of rat treated with Streptosotocine
[5] = system: isoprenaline induced tachycardia; assay: isoprenaline induced tachycardia, heart frequency; type: in vivo
Procedure: 5 minutes after the administration of a 10 mg./kg. i.v. dose the heart frequency increased by 10%, and 5 minutes after the administration of a 100 mg./kg. i.v. dose it decreased by 3%.

[6] = system: diabetic macro- and microangiopathy in CFY strain rats; assay: development of diabetic macro- and microangiopathy in latent diabetic CFY rats; type: in vivo, rat
[7] = treated at weight of 200 g., until 500 g., CFY rats

With `NC(=NOCC(O)CN1CCCCC1)c1ccccc1` (centres unmarked) [Example 1, O-(3-piperidino-2-hydroxy-1-propyl)-benzamidoxime] the “α-blocking activity on normal objects/aortas” value (rat normal aorta-spiral) was “slight α-blocking activity”, the LD50 (in vivo) was 70.5 mg/kg and the “β-blocking activity on diabetic test (diabetic aorta spiral)” value (“β-blocking activity on diabetic test” below) [1] was “strong β-blocking activity”.
With `COc1ccc(CC(N)=NOCC(O)CN2CCCCC2)cc1OC` (centres unmarked) [Example 2, O-(3-piperidino-2-hydroxy-1-propyl)-3,4-dimethoxyphenyl-acetamidoxime dihydrochloride] the “influence on the hanging of mice on a rotating rod” value (mice) was “Neither the compound "NP-18" nor the compound "NP-51" had any influence”, the “inhibition of the effect of isoprenaline on guinea pig trachea” value (guinea pig trachea) was “inhibited the effect of isoprenaline” and the “β-blocking activity on trachea-spiral” value (guinea pig trachea) was “slight β-blocking activity”. The “decrease of the effect of 0.01 γ/ml. isoprenaline” value (guinea pig trachea; 10γ of test substance, guinea pig trachea) was “half of its original level”, the “effect smaller than that of inderal on guinea pig trachea” value (guinea pig trachea; versus inderal) was 4 orders of magnitude and the “β-blocking activity on papillary muscle” value (cat papillary muscle) was “slight β-blocking activity”. The “concentration of inderal with identical effect on papillary muscle” value (cat papillary muscle; test compound at 100 μg./ml.) was 0.05 µg/mL, the “mean of the differences of the pD2-values on normal (control) aorta-spiral” value (rat normal aorta-spiral; noradrenaline, normal rat, Example 2: average of five tests) was 0.52 and the “effect on uterus preparation of untreated rat” value ([2]; 50 γ/ml., stopped by noradrenaline) was “set in motion the uterus preparat”. The “concentration of inderale with identical effect (untreated rat uterus)” value ([2]; test compound at 50 γ/ml.) was 0.5 µg/mL, the LD50 (in vivo) was 165 mg/kg and the “influence on the effect of isoprenaline on blood pressure, heart frequency, minute volume and dp/dt” value (anesthetized cats; anesthetized cats) was “did not influence the effect of isoprenaline”. For the same compound, the “dose causing bradycardia and dp/dt decrease” value (anesthetized cats; cat, in vivo) was 100 µg/kg, the “effect on blood pressure, heart frequency, minute volume and dp/dt” value (anesthetized cats; in vivo) was “did not show any significant effect” and the “inderal dose with similar effect (bradycardia, dp/dt decrease)” value (anesthetized cats; in vivo) was about 0.5 µg/kg. The “inhibition at the aorta spiral of a diabetic animal” value [1] was “inhibition of one order of magnitude”, the “mean of the differences of the pD2-values on diabetic aorta-spiral” value ([1]; noradrenaline, Streptosotocine-diabetic rat, Example 2: average of five tests) was 1.31 and the “β-blocking effect on normal tests” value (rat gastric fundus) was “slight effect”. The “extension of hypoxia survival time” value (hypoxia survival time) was “extended with one order of magnitude”, the “effect on rat uterus pretreated with Streptosotocine” value [3] was “no effect” and the “effect on gastric fundus of Streptosotocine treated rat” value ([4]; 10 γ/ml.) was “no effect”. For the same compound, the “β-blocking effect on diabetic samples” value ([4]; summary of the gastric fundus tests) was “strong β-blocking effect”, the “increase of heart frequency” value ([5]; 5 minutes after 10 mg./kg. i.v.) was 10% and the “decrease of heart frequency” value ([5]; 5 minutes after 100 mg./kg. i.v.) was 3%. For the same compound, the “influence on isoprenaline induced tachycardia” value ([5]; i.v.) was “slightly influenced”, the final histological changes ([6]; initial receptor transformations inhibited) was “do not occur” and the degree of macroangiopathy [6, 7] was “considerably smaller”. The development of microangiopathy [6, 7] was “did not develop”.
With `NC(=NOCC(O)CN1CCCCC1)c1ccc(Cl)cc1` (centres unmarked) [Example 10, O-(3-piperidino-2-hydroxy-1-propyl)-4-chloro-benzamidoxime dihydrochloride] the “β-blocking activity on normal test” value (rat normal aorta-spiral) was “slight β-blocking activity” and the “β-blocking activity on diabetic test” value [1] was “strong β-blocking activity”.
In the case of `CC(C)NCC(O)CON=C(N)CC(c1ccccc1)c1ccccc1` (centres unmarked) [Example 14, O-(3-isopropylamino-2-hydroxy-1-propyl)-3,3-diphenyl-propionamidoxime dihydrochloride], the LD50 (in vivo) is reported as 16.2 mg/kg and the “β-blocking activity on diabetic test” value [1] is reported as “strong β-blocking effect”.
With `CN(CCO)CC(O)CON=C(N)CC(c1ccccc1)c1ccccc1` (centres unmarked) [Example 16, O-[3-N-methyl-N-(2-hydroxy-ethyl)-amino-2-hydroxy-1-propyl]-3,3-diphenyl-propionamide dihydrochloride] the LD50 (in vivo) was 37 mg/kg and the “β-blocking activity on diabetic test” value [1] was “strong β-blocking activity”.
In the case of `CC(C)NCC(O)COc1cccc2ccccc12` (centres unmarked) [inderal, 1-isopropylamino-3-(1-naphthyloxy)-propane-2-ol, reference compound], the “effect on noradrenaline induced contractions of non-diabetic preparates” value (rat normal aorta-spiral; non-diabetic aorta-spiral) is reported as “no effect”.
